Sequences with one replicate were seen in a single cluster, so their values are uncertain.
System: ATP
Assay: switch fluorescence ratio, 500 uM ATP over buffer (Cy3 cluster intensity, sum of 5 cycles each) (fold (ratio)); higher = stronger signal-on switching upon ATP binding; sequences stand for … in TCGTCGGCAGCGTCAGATGTGTATAAGAGACAGTTTTTTTTTTTTTTTTTTTTTTTTT…TC
Conditions: aptamer strand: ATP DNA aptamer (quencher-CACCTGGGGGAGTATTGCGGAGGAAGG + anchor), 100 nM annealed; ATP concentration: 500 uM; one replicate
Summary of the method: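 Clusters with intensities outside 100-1000 RFU were excluded. The remaining Cy3-labelled switching-strand clusters on a modified Illumina MiSeq flow-cell had been annealed to 100 nM quencher-labelled ATP aptamer and imaged in selection buffer, then after 15 min with 500 uM ATP at 22 °C, for five cycles separated by NaOH stripping and re-annealing. The fluorescence ratio, averaged per switch-domain sequence, is each cluster's summed target-cycle Cy3 intensity over its summed buffer-cycle Cy3 intensity.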
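Note: ATP exposure 15 min at 22 °C before imaging.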

TTGAGCGGCG
switch fluorescence ratio: 0.982

ATGTTTCTAA
switch fluorescence ratio: 1.09

GAAACTCCTT
switch fluorescence ratio: 1.01

GGTTGCTACA
switch fluorescence ratio: 0.979

ATTCCCAGT
switch fluorescence ratio: 0.994

TTGCTTCGAC
switch fluorescence ratio: 1.02

GAGGGCGGCT
switch fluorescence ratio: 0.922

TACATTCCCC
switch fluorescence ratio: 1.15

GAATACTCCG
switch fluorescence ratio: 1.87

CGGCGTAACA
switch fluorescence ratio: 1.07

GAAGGCAGAC
switch fluorescence ratio: 1.97

GAGAGCATGG
switch fluorescence ratio: 0.976

TTGGTCGTTA
switch fluorescence ratio: 1.02

CACACGCGTC
switch fluorescence ratio: 1.1

CTTGCATGTC
switch fluorescence ratio: 1.09

CTTCTGCGGC
switch fluorescence ratio: 1.08

ACGTTAGGTA
switch fluorescence ratio: 1.06

TTCATCTTTC
switch fluorescence ratio: 1.12

ACGTGGCTCG
switch fluorescence ratio: 1.02

ACCGTTAGAC
switch fluorescence ratio: 1.36

GCGTTGATTT
switch fluorescence ratio: 0.993

TATCTATATG
switch fluorescence ratio: 1.03

CTAACGTTGA
switch fluorescence ratio: 1.04

GGATTCATAG
switch fluorescence ratio: 1.02

GGCAATTCCT
switch fluorescence ratio: 1.16

AACGATGGGC
switch fluorescence ratio: 1.06

CCAAAGGAGC
switch fluorescence ratio: 1.02

GCAGCAGTTT
switch fluorescence ratio: 1.04

TATCTTAAT
switch fluorescence ratio: 0.994

CCAGGCGTCG
switch fluorescence ratio: 1.01

CTTTGCCGCA
switch fluorescence ratio: 1.38

CACGGCGGGG
switch fluorescence ratio: 0.986

GCCCTATGTC
switch fluorescence ratio: 1

CGCGCCCGCG
switch fluorescence ratio: 0.995

AACTACATT
switch fluorescence ratio: 0.989

ACGATGGAAA
switch fluorescence ratio: 0.985

AGGGCTGTCA
switch fluorescence ratio: 0.993

CGGGGAGATG
switch fluorescence ratio: 0.998

CCTAACGGCC
switch fluorescence ratio: 1.07

TGTTATATCG
switch fluorescence ratio: 1.01

TCTATGTTGC
switch fluorescence ratio: 1.01

TCGTGTGTT
switch fluorescence ratio: 0.964

CTGAACCCCA
switch fluorescence ratio: 1.05

ATATTCGTTC
switch fluorescence ratio: 1.01

GAGCGCAGAC
switch fluorescence ratio: 1.24

ACGGACGGCG
switch fluorescence ratio: 1.01

GGGCTGCTAA
switch fluorescence ratio: 0.943

ATTCGTAATT
switch fluorescence ratio: 0.998

ATTGATTTGG
switch fluorescence ratio: 0.978

TGATACTATG
switch fluorescence ratio: 0.98

AACCTACTTT
switch fluorescence ratio: 1.15

GGGATTGCAG
switch fluorescence ratio: 0.949

TGGGGGCAGA
switch fluorescence ratio: 1

AGTGACTGCT
switch fluorescence ratio: 0.967

TATGTCTTCT
switch fluorescence ratio: 0.979

GTCTGGAACA
switch fluorescence ratio: 1.04

ATAAAATATA
switch fluorescence ratio: 0.999

ACGGATGAGG
switch fluorescence ratio: 1.01

TGCCTATTCC
switch fluorescence ratio: 1.1

CCTACGGCCT
switch fluorescence ratio: 1.52

AGAAAATGAG
switch fluorescence ratio: 0.958

GCGTTAGCC
switch fluorescence ratio: 0.978

ATGGTCACGA
switch fluorescence ratio: 0.99

ACCGCAGTAA
switch fluorescence ratio: 3.51

TAATAGGAAT
switch fluorescence ratio: 0.958

TGTTCCGGTT
switch fluorescence ratio: 0.979

CTGACCTCGC
switch fluorescence ratio: 1.58

GGTAATGT
switch fluorescence ratio: 0.989

GTTATTCTAT
switch fluorescence ratio: 0.978

AAAATGATAA
switch fluorescence ratio: 1.01

CGAGGATTGT
switch fluorescence ratio: 0.981

TTTAAGGCGC
switch fluorescence ratio: 1.02

CGCCAATCTG
switch fluorescence ratio: 1.11

CGGAATAAGC
switch fluorescence ratio: 1.22

ACCGTTGTTG
switch fluorescence ratio: 1.01

GAGGCTCATC
switch fluorescence ratio: 1.03

CGATACAGGA
switch fluorescence ratio: 1.05

AGTATTAAGC
switch fluorescence ratio: 1.02

GGCCTTCATG
switch fluorescence ratio: 1.01

CCGGCCGATC
switch fluorescence ratio: 1.46

ATTGTATTAG
switch fluorescence ratio: 0.994

CTGTCGTGCT
switch fluorescence ratio: 0.92

GAGTCCGGT
switch fluorescence ratio: 0.965

AGCTGTTTTT
switch fluorescence ratio: 0.974

AATCCGTGAG
switch fluorescence ratio: 1.02

AGGCGCAACT
switch fluorescence ratio: 1.1

TATCACAGGG
switch fluorescence ratio: 1.06

CTGTGAATTG
switch fluorescence ratio: 0.999

CATAGCGTCC
switch fluorescence ratio: 1.06

GTAGCTCAGG
switch fluorescence ratio: 1.1

AGAGACCCCC
switch fluorescence ratio: 1.1

CATGACAAGT
switch fluorescence ratio: 0.992

CCCCCGGAGG
switch fluorescence ratio: 1.28

AAAGAGCTAC
switch fluorescence ratio: 1.22

TCAGATATGT
switch fluorescence ratio: 1.04

TATACTATTC
switch fluorescence ratio: 0.954

CATGAATCTC
switch fluorescence ratio: 0.999

AGGTAGGGTC
switch fluorescence ratio: 0.984

TGCATAGCGG
switch fluorescence ratio: 1.04

CATAGACCTT
switch fluorescence ratio: 1.21

TAAAATTTTC
switch fluorescence ratio: 1.04

TAATGCGAGC
switch fluorescence ratio: 1.58

CGGAGTGCAG
switch fluorescence ratio: 1.09

TGACAGACGG
switch fluorescence ratio: 1.13

CGTTGGATTA
switch fluorescence ratio: 1.01

ATCGTTTAGA
switch fluorescence ratio: 1.01

AATATCCAGG
switch fluorescence ratio: 1.28

TTCGCGCCGG
switch fluorescence ratio: 0.995

CGTGACATGG
switch fluorescence ratio: 0.857

GTGGTTCGGT
switch fluorescence ratio: 0.992

AGTACTGAGA
switch fluorescence ratio: 1.04

GAGAATCAC
switch fluorescence ratio: 0.996

GATAGTTATC
switch fluorescence ratio: 0.98

CGTGCCGGGA
switch fluorescence ratio: 1.01

GGTTCTTAAT
switch fluorescence ratio: 1.03

CTGGCCGCAT
switch fluorescence ratio: 1.6

CAGGTCCCGG
switch fluorescence ratio: 0.997

AGACGTCCCG
switch fluorescence ratio: 1.07

TGATCCGCGG
switch fluorescence ratio: 2.11

GGGCTCTGCT
switch fluorescence ratio: 1

CTGAATTTGT
switch fluorescence ratio: 0.934

GCAGGCTAGG
switch fluorescence ratio: 0.977

TATATACAAG
switch fluorescence ratio: 1.01

GCAAAAACCC
switch fluorescence ratio: 1.03

CACGGTTGT
switch fluorescence ratio: 1.02

ATTGTTGC
switch fluorescence ratio: 1.01

GTGCTAAGAC
switch fluorescence ratio: 1.2

GCAACGGTGG
switch fluorescence ratio: 0.992

TGTTTTGCG
switch fluorescence ratio: 1.01

CCGGTTTTTC
switch fluorescence ratio: 1.1

TTATCGTGCA
switch fluorescence ratio: 1

CTTGCGGCGC
switch fluorescence ratio: 0.964

GGCAATAGGA
switch fluorescence ratio: 1.24

ATCGATAGGG
switch fluorescence ratio: 1.01

TTTGACCGGC
switch fluorescence ratio: 1.05

GCGGCGCTAA
switch fluorescence ratio: 1.01

GTGCTGTCGG
switch fluorescence ratio: 1.06

GGTCAAGAGT
switch fluorescence ratio: 0.942

CTTGCCAGCG
switch fluorescence ratio: 1.06

AAAATATTAG
switch fluorescence ratio: 1.02

TTGTCAGGCG
switch fluorescence ratio: 0.978

TAGCGTAAAG
switch fluorescence ratio: 1.04

TTAATTTAGC
switch fluorescence ratio: 1.01

AGAGGTTCGT
switch fluorescence ratio: 0.962

GAAGATGTCA
switch fluorescence ratio: 0.926

TTGGATAGGA
switch fluorescence ratio: 1.06

CCCGGACACG
switch fluorescence ratio: 1.05

GTTTAGGTCG
switch fluorescence ratio: 1.01

ATCCACTATG
switch fluorescence ratio: 1.04

TCAATATCGC
switch fluorescence ratio: 1.02

GGTTATTC
switch fluorescence ratio: 0.985

CATTAACCAC
switch fluorescence ratio: 0.995

GCATTTGAT
switch fluorescence ratio: 0.971

CCGAAAAGGG
switch fluorescence ratio: 1.36

AAAGACTCA
switch fluorescence ratio: 0.982

TATAGCCCTT
switch fluorescence ratio: 1.08

TTAATTCAAT
switch fluorescence ratio: 0.987

— the supplement of paper PMC10126150
